First the molecules themselves.
B1: PhoQ; a variant is named by its letters at X, in order, P23837 (parent)
chain: MKKLLRLFFPLSLRVRFLLATAAVVLVLSLAYGMVALIGYSVSFDKTTFRLLRGESNLFYTLAKWENNKLHVELPENIDKQSPTMTLIYDENGQLLWAQRDVPWLMKMIQPDWLKSNGFHEIEADVNDTSLLLSGDHSIQQQLQEVREDDDDAEMTHSVAVNVYPATSRMPKLTIVVVDTIPVELKSSYMVWSWFIYVLSANLLLVIPLLWVAAWWSLRPIEALAKEVRELEEHNRELLNPATTRELTSLVRNLNRLLKSERERYDKYRTTLTDLTHSLKTPLXXLQXXLRSLRSEKMSVSDAEPVMLEQISRISQQIGYYLHRASMRGGTLLSRELHPVAPLLDNLTSALNKVYQRKGVNISLDISPEISFVGEQNDFVEVMGNVLDNACKYCLEFVEISARQTDEHLYIVVEDDGPGIPLSKREVIFDRGQRVDTLRPGQGVGLAVAREITEQYEGKIVAGESMLGGARMEVIFGRQHSAPKDE

The list shows a part of the results. A value given as a limit tells only on which side of the number the result lay.

In the experiment the parent is B1. The experiment in a line: enrichment ratio after two sorts for PhoP signalling (ratio (wild type AVST 3.29)); higher = more functional. The following applies: with PhoP (E. coli).
Regarding DRCM, the enrichment ratio was at most 0.25. In the case of VMFI it was at most 0.25; in that of LLCY, at most 0.25. Next, SLLS: 6.35; HTTY: at most 0.25.

Regarding IPWL, the enrichment ratio was at most 0.25.

For the variant KHER, the enrichment ratio is at most 0.25. In the case of YTGS it was at most 0.25; in that of HMTC, at most 0.25; in that of YLDR, at most 0.25. Regarding RQDW, the enrichment ratio was at most 0.25.

Regarding FGCI, the enrichment ratio was found to be 7.38. Take RKTD: the enrichment ratio is at most 0.25. On to ANEL, for which the enrichment ratio is at most 0.25. In the case of YQNN it was at most 0.25; in that of KFYQ, at most 0.25; in that of YKVH, at most 0.25. In the case of HRPI it was at most 0.25; in that of FYIK, at most 0.25.

As to PWDK, the enrichment ratio was at most 0.25. Next, RDGP: at most 0.25; IAGG: at most 0.25. In the case of NTRP it was at most 0.25; in that of VCFD, at most 0.25. Next, IALP: at most 0.25.

Consider TLWI, for which the enrichment ratio is at most 0.25.

As for IDKK, the enrichment ratio is at most 0.25.

With NVMV, the enrichment ratio was at most 0.25.

As for EHEF, the enrichment ratio was at most 0.25.

Consider EYFH, for which the enrichment ratio was at most 0.25. Next, TETM: 22.4. Consider EKGL, for which the enrichment ratio is at most 0.25.

FLER: the enrichment ratio was at most 0.25.

EKSF: the enrichment ratio is at most 0.25. In the case of HYSI it was at most 0.25. Take YSRI: the enrichment ratio was at most 0.25.

With ANLP, the enrichment ratio was at most 0.25. Regarding GREI, the enrichment ratio was at most 0.25. Next, GPST: at most 0.25; GEAG: 3.49; MPLR: at most 0.25. In the case of MQNI it was at most 0.25.

For LQPC, the enrichment ratio is at most 0.25. Next, FRCY: at most 0.25; FSCA: at most 0.25; LINM: at most 0.25. In the case of LWMD it was at most 0.25. In the case of WGNR it was at most 0.25; in that of VQIF, at most 0.25; in that of VTFQ, at most 0.25. As to ALHA, the enrichment ratio was at most 0.25. Next, SKKN: at most 0.25. Next, GDVQ: at most 0.25.

For the variant WNWR, the enrichment ratio was at most 0.25. Regarding TRWH, the enrichment ratio was at most 0.25. In the case of DGDH it was at most 0.25; in that of QATI, at most 0.25; in that of PPGF, at most 0.25. In the case of RGSL, the enrichment ratio was at most 0.25. In the case of ARKR, the enrichment ratio is at most 0.25. In the case of PYCG it was at most 0.25; in that of YRMH, at most 0.25; in that of PVWM, at most 0.25. With TKEF, the enrichment ratio is at most 0.25. Regarding FTDI, the enrichment ratio was at most 0.25. Take RYKG: the enrichment ratio is at most 0.25. In the case of NNFI it was at most 0.25; in that of DETF, at most 0.25.

For ADRQ, the enrichment ratio was at most 0.25. Next, RFGA: at most 0.25. In the case of DCFH it was at most 0.25. In the case of FHGW it was at most 0.25; in that of FGDP, at most 0.25; in that of LRKK, at most 0.25.

For the variant DQTH, the enrichment ratio was at most 0.25. In the case of IIGT it was at most 0.25. Next, RQQD: at most 0.25; PSIG: at most 0.25; VELT: 4.93. In the case of RDLH, the enrichment ratio is at most 0.25. Next, DKQD: at most 0.25; CRPC: at most 0.25. Next, KQFT: at most 0.25; WMTF: at most 0.25; QQPS: at most 0.25. In the case of NVAG it was at most 0.25. Turning to EDTQ, the enrichment ratio was at most 0.25. Regarding NQTC, the enrichment ratio is at most 0.25. Regarding PCRS, the enrichment ratio is at most 0.25. In the case of PCTR it was at most 0.25.

For the variant FWQF, the enrichment ratio was at most 0.25. In the case of KKPQ it was at most 0.25; in that of TDAT, 9.5; in that of NRAH, at most 0.25. ACFF: the enrichment ratio is at most 0.25.

Take TWAS: the enrichment ratio is at most 0.25. Regarding WLQF, the enrichment ratio was at most 0.25. In the case of LVKM it was at most 0.25; in that of EDQL, at most 0.25. In the case of WNQS it was at most 0.25. Next, RCGP: at most 0.25; MDVG: at most 0.25; NTRL: at most 0.25. VVCT: the enrichment ratio was at most 0.25. Next, DGMR: at most 0.25; ICHR: at most 0.25.

For AGMM, the enrichment ratio was 5.09. Next, HDWD: at most 0.25; PHPC: at most 0.25.

On to RKEP, for which the enrichment ratio was at most 0.25. Turning to GLWA, the enrichment ratio is at most 0.25.

Regarding WWCI, the enrichment ratio is at most 0.25. In the case of YGFH it was at most 0.25. In the case of NWCQ it was at most 0.25; in that of WIII, at most 0.25; in that of DHFD, at most 0.25. In the case of TKDW it was at most 0.25; in that of HDSI, at most 0.25; in that of DHMY, at most 0.25. On to GWNS, for which the enrichment ratio was at most 0.25. In the case of RQQC it was at most 0.25; in that of PNMG, at most 0.25. In the case of QCLK it was at most 0.25.

As to LNGP, the enrichment ratio is at most 0.25. Next, HWPC: at most 0.25. Next, PDMQ: at most 0.25; YFEA: at most 0.25.

Take DAYG: the enrichment ratio is at most 0.25.

Consider IYFK, for which the enrichment ratio is at most 0.25. Next, GNCQ: 12.1; HNSY: at most 0.25; FALK: 2.57. For RSEL, the enrichment ratio was at most 0.25.

On to KTQI, for which the enrichment ratio was at most 0.25. Next, IPLS: at most 0.25. In the case of PNRM it was at most 0.25; in that of ITNE, at most 0.25; in that of FAPG, at most 0.25. Next, GTFE: at most 0.25.

Take LGWL: the enrichment ratio is 1.33. In the case of MPFG it was at most 0.25. Next, TCMQ: 6.1. In the case of YPWT it was at most 0.25; in that of NAKN, at most 0.25. As for QNRD, the enrichment ratio is at most 0.25. As to VKGV, the enrichment ratio was at most 0.25. Next, MFYK: at most 0.25. Next, IARE: at most 0.25; STLA: 10.9; EVKN: at most 0.25.

As to WKNR, the enrichment ratio was at most 0.25.

For IGKC, the enrichment ratio was at most 0.25. In the case of PDIQ it was at most 0.25.

Values taken from a collection of fitness landscapes (doi:10.1126/science.1257360).
